Reference: PubChem BioAssay AID1460 (National Center for Advancing Translational Sciences (NCATS), 2008)
In all, about 270,000 compounds went through this assay and about 5,800 (2.1%) were called active. Inconclusive means that the source gave no clear call. Such entries were picked first, then a sample of the others. The call rests on the fitted dose curve; in most records, active means well fitted inhibition curve with a large enough effect; inconclusive means small, poorly fitted or top-dose-only effect; inactive means flat fitted curve, though single readings scatter. Potencies beside an inconclusive call are fits to weak or partial responses and may not hold up.

target: Microtubule-associated protein tau (Homo sapiens) (UniProt P10636); experiment: qHTS for Inhibitors of Tau Fibril Formation, Thioflavin T Binding; conditions: recombinant tau K18 P301L (four-repeat tau fragment), heparin-induced fibrillization, ThT fluorescence; series mostly up to 57.4 µM; further: nearly all actives have a fitted effect of over 55% in size
Procedure, shortened: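 K18 P301L tau (15 uM + 0.24 uM Alexa 594-tagged), heparin 20 uM, NaOAc pH 7, 6 h 37 C; ThT 30 uM, 1 h RT, ex 450/em 510 nm.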
Potency means the concentration at half of the fitted maximal effect; tags describe the fitted curve by direction and shape.

Chain of UniProt P10636 (P10636 whole entry, looked up, the tested form may be a part): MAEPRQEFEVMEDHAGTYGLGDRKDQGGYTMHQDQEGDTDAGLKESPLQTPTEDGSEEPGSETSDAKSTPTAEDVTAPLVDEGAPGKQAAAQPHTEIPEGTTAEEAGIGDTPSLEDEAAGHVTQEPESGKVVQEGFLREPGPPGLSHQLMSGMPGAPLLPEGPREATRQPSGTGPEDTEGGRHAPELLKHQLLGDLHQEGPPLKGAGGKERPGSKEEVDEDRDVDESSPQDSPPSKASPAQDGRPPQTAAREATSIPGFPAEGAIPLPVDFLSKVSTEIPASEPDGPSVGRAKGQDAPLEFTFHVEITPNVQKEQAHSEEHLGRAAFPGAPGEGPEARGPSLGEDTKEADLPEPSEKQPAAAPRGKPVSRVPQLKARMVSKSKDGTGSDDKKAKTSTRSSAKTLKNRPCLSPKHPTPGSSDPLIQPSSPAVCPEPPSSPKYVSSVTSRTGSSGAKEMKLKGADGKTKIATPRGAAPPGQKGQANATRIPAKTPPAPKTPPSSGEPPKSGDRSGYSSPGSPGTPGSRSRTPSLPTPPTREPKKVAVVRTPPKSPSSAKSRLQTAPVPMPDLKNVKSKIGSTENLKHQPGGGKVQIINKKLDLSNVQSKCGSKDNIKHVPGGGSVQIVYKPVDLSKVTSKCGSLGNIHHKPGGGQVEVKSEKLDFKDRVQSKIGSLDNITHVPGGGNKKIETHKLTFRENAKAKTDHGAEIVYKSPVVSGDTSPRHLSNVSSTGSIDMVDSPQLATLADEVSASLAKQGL

Row | SMILES | Potency
1 | CCOC(=O)C(=Cc1ccc(Br)cc1)C(=O)OCC | inconclusive: 10 µM [inhibitor, partial curve]
2 | O=C(Nc1cc(C(F)(F)F)ccc1N1CCOCC1)c1ccco1 | inactive
3 | Cc1nn(CC(=O)N2CCN(c3ccccc3F)CC2)c(=O)c2cccn12 | inconclusive: 11.2 µM [activator, partial curve]
4 | Cc1c(Cc2ccccc2)c(=O)oc2c(O)c(O)ccc12 | inconclusive: 15.8 µM [inhibitor, partial curve, poor fit]
5 | CC(C)(C)OC(=O)N/N=C\c1ccc([N+](=O)[O-])s1 | inconclusive: 28.2 µM [inhibitor, partial curve]
6 | CC(C)c1ccc(NC(=O)[C@H]2O[C@@H]3OC(C)(C)O[C@@H]3[C@H]3OC(C)(C)O[C@H]32)cc1 | inactive
7 | Cc1ccc(/C(O)=C2\C(=O)C(=O)N(Cc3cccnc3)C2c2ccccc2[N+](=O)[O-])cc1 (stereo not drawn) | inactive
8 | CCc1c(C)nc(SCC(=O)N2CCN(c3ccccc3)CC2)[nH]c1=O | inconclusive: 20 µM [inhibitor, single point]
9 | CC(C(=O)c1c[nH]c(C(N)=O)c1)c1ncc(C(F)(F)F)cc1Cl (stereo not drawn) | inactive
10 | COc1ccc(OC)c2[nH]c(=O)c(CCNS(=O)(=O)c3ccc(C)cc3)cc12 | inactive
11 | CCCc1noc2c1C(c1ccoc1)C(C#N)=C(N)N2 (stereo not drawn) | inconclusive: 39.8 µM [inhibitor, single point]
12 | Cc1ccc(-c2cc(C(=O)OCC(=O)N(C)C3CCS(=O)(=O)C3)c3ccccc3n2)o1 (stereo not drawn) | inconclusive: 22.4 µM [inhibitor, partial curve]
13 | Cc1cc2c(OCC(CNC(C)(C)C)OC(=O)c3ccccc3)cccc2[nH]1 (stereo not drawn) | inconclusive: 39.8 µM [inhibitor, partial curve, poor fit]
14 | S=C(Nc1ccc2nc(-c3ccccn3)c(-c3ccccn3)nc2c1)N1CCCCCC1 | inconclusive: 35.5 µM [inhibitor, single point]
15 | CCC(C(=O)NCc1ccccc1Cl)n1c(=O)c2cccn2c2ccccc21 (stereo not drawn) | inactive
16 | O=[N+]([O-])c1c(NCCCO)cc(Sc2nc3ccccc3s2)c2nonc12 | active: 2.24 µM
17 | CCCCCCOC(=O)c1ccc(OC(=O)c2cccnc2)cc1 | inconclusive: 31.6 µM [inhibitor, single point]
18 | CCOc1ccc(/C=N/NC(=O)C(C)Sc2ccccn2)cc1OCC (stereo not drawn) | inactive
19 | O=C(O)c1ccccc1SC1CC(=O)N(c2ccc3c(c2)OCO3)C1=O (stereo not drawn) | inconclusive: 15.8 µM [inhibitor, partial curve]
20 | CCOC(=O)c1sc(NC(NC(=O)c2ccco2)(C(=O)OC)C(F)(F)F)nc1C (stereo not drawn) | inconclusive: 31.6 µM [inhibitor, single point]
21 | CCOc1ccc(C2C(C(C)=O)=C(O)C(=O)N2CCc2c[nH]c3ccccc23)cc1 (stereo not drawn) | inconclusive: 31.6 µM [inhibitor, partial curve]
22 | Nc1c(C(=O)NC2CCCC2)c2nc3ccccc3nc2n1N | inconclusive: 15.8 µM [inhibitor, partial curve]
23 | Cc1ccc(S(=O)(=O)N2CCN(CC(=O)NC3CCCc4ccccc43)CC2)cc1C (stereo not drawn) | inactive

Row | SMILES | Potency
24 | S=C(Nc1ccc2c(c1)OCCO2)Nc1ccc2c(c1)OCO2 | inconclusive: 14.1 µM [inhibitor, partial curve]
25 | O=[N+]([O-])c1ccc(-c2cnc[nH]2)cc1 | inconclusive: 4.47 µM [inhibitor, full curve]
26 | CCN(c1cccc(C)c1)C(C(=O)Nc1ccc(OC)cc1)c1cc2c(cc1[N+](=O)[O-])OCO2 (stereo not drawn) | inconclusive: 39.8 µM [inhibitor, single point]
27 | CCOc1cccc(C(=O)N(Cc2ccc(C(C)C)cc2)C2CCS(=O)(=O)C2)c1 (stereo not drawn) | inactive
28 | Cn1c(Cc2cccc3ccccc23)nnc1SCc1ccc([N+](=O)[O-])cc1 | inconclusive: 17.8 µM [inhibitor, partial curve]
29 | Cc1ccc(NC(=O)C2CCN(C(=O)c3sc4nc[nH]c(=O)c4c3C)CC2)cc1F | inactive
30 | C[C@@H]1CCC2[C@@H](C)[C@@H](O)O[C@@H]3O[C@@]4(C)CC[C@@H]1[C@@]23OO4 (stereo partly drawn) | inactive
31 | CCCN1CCN(CCCNC(=O)c2cc3c(s2)-c2c(C)cccc2OC3)CC1 | inconclusive: 7.94 µM [inhibitor, full curve, poor fit]
32 | O=[N+]([O-])c1ccc(/C=C/C2=NN(c3ccccc3)C(c3ccco3)C2)o1 (stereo not drawn) | active: 7.94 µM
33 | NC(=O)c1c(NC(=O)CS(=O)(=O)c2ccc(Cl)cc2)sc2c1CCCC2 | inconclusive: 3.55 µM [inhibitor, partial curve, poor fit]
34 | O=C(c1cccc(Cl)c1)N(Cc1cccc(F)c1)C1CCS(=O)(=O)C1 (stereo not drawn) | inactive
35 | C=CCN1CCc2c(cc(O)c(O)c2Cl)C(c2ccccc2)C1 (stereo not drawn) | inconclusive: 1.41 µM [inhibitor, full curve]
36 | COC(=O)c1cc2sccc2n1Cc1c(C)cc(C)cc1C | inconclusive: 15.8 µM [inhibitor, partial curve]
37 | NC(N)=NS(=O)(=O)c1ccc(NC(=S)NC(=O)c2ccc3c(c2)OCO3)cc1 | inactive
38 | COc1ccc(S(=O)(=O)N2CCOCC2)cc1NC(=O)COC(=O)C1COc2ccccc2O1 (stereo not drawn) | inactive
39 | CC12CCC(C/C1=N\N=C1\NC(=O)/C(=C\c3cccc(Br)c3)S1)C2(C)C (stereo not drawn) | inconclusive: 39.8 µM [inhibitor, single point]
40 | C=CCc1ccc(OCCOCCOc2cccc3ccc(C)nc23)c(OC)c1 | inconclusive: 25.1 µM [inhibitor, single point]
41 | COc1ccccc1N(C)S(=O)(=O)c1ccc(C(=O)OCC(=O)NCc2cccs2)cc1 | inconclusive: 7.94 µM [inhibitor, partial curve]
42 | COc1cccc(N/C(SCc2cccc([N+](=O)[O-])c2)=C(/C#N)C(N)=O)c1 | inconclusive: 20 µM [inhibitor, partial curve]
43 | CCOCC(=O)Nc1ccc([N+](=O)[O-])cc1Cl | inconclusive: 15.8 µM [inhibitor, partial curve]
44 | COc1ccc(-c2nc3c(c(=O)[nH]c(=O)n3Cc3ccccc3)n2Cc2ccccc2)cc1 | inconclusive: 5.62 µM [inhibitor, full curve]
45 | CCCSc1nnc(NC(=O)c2cc(=O)c3ccccc3o2)s1 | inconclusive: 11.2 µM [inhibitor, partial curve]
46 | CN(C)CCOC(=O)C12CC3CC(C1)CC(C(=O)OCCN(C)C)(C3)C2 | inactive

Row | SMILES | Potency
47 | COCCNC(=S)N/N=C/c1c(C)[nH]c2ccccc12 | inconclusive: 22.4 µM [inhibitor, partial curve]
48 | Cc1cccc(N(C)C(=O)Cn2cnc3nc4c(cc3c2=O)CCCC4)c1 | inactive
49 | CCC(NC(=O)NNC(N)=S)(C(F)(F)F)C(F)(F)F | inactive
50 | Cc1ccc(C(=O)N/N=C\c2ccc([N+](=O)[O-])s2)cn1 | inconclusive: 11.2 µM [inhibitor, partial curve]
51 | COc1ccc(OCCCCOc2ccccc2Cl)cc1 | inconclusive: 8.91 µM [inhibitor, partial curve]
52 | Cc1ccc(-c2noc(CN(C(=O)c3cccs3)C(C)C)n2)cc1 | inactive
53 | Cc1ccccc1NC(=O)CSc1nccn1C | inactive
54 | Cc1nn(C)c2c1c(C(F)(F)F)cc(=O)n2CC(=O)Nc1ccc(F)cc1F | inactive
55 | CCN(CCCNC(=O)CCc1nc(-c2ccc(C)cc2)no1)c1cccc(C)c1 | inconclusive: 20 µM [inhibitor, partial curve]
56 | COc1cccc(NC(=O)Cn2c(=O)n(-c3ccc(C)cc3)c(=O)c3ccccc32)c1 | inactive
57 | CN1/C(=C\C(=O)COC(=O)c2ccc([N+](=O)[O-])o2)C(C)(C)c2ccccc21 | inconclusive: 15.8 µM [inhibitor, partial curve]
58 | Cc1ccccc1NC(=O)c1c(C)oc2ccc(O)c(CN(C)Cc3ccccc3)c12 | inconclusive: 25.1 µM [inhibitor, single point]
59 | O=C(NNc1c(Cl)cccc1Cl)c1cccs1 | inconclusive: 39.8 µM [inhibitor, single point]
60 | CC(C)Oc1ccc(C(=O)NCCc2csc(-c3cccc(F)c3)n2)cc1 | inconclusive: 20 µM [inhibitor, partial curve, poor fit]
61 | CCC(C)n1c(SCC(=O)Nc2cc(C(C)(C)C)nn2-c2ccccc2)nc2ccccc2c1=O (stereo not drawn) | inconclusive: 15.8 µM [inhibitor, partial curve]
62 | N#Cc1c(Nc2ccccc2)sc(C(=O)c2ccccc2)c1N | inconclusive: 15.8 µM [inhibitor, partial curve]
63 | CC1=C(C(=O)O)N2C(=O)[C@@H](NC(=O)C(N)C3=CCC=CC3)[C@H]2SC1 (stereo partly drawn) | inconclusive: 20 µM [inhibitor, partial curve]
64 | COC(=O)[C@@]1(Cc2ccc(F)cc2)[C@H]2c3cc(C(=O)N4CCCC4)n(Cc4ccc(C)o4)c3C[C@H]2CN1C(=O)c1ccccc1 | inconclusive: 11.2 µM [inhibitor, partial curve]
65 | CCCc1nnc(NC(=O)CSc2nnc3c4ccccc4n(CC)c3n2)s1 | inactive
66 | COC(=O)c1cc(C(=O)c2cc(F)ccc2O)cn2c(=O)c3c(C)c(C)sc3nc12 | inconclusive: 14.1 µM [inhibitor, partial curve]
67 | Brc1ccc(-c2nn3c(-c4ccco4)nnc3s2)o1 | inconclusive: 31.6 µM [inhibitor, partial curve]
68 | O=C(/C=C/c1ccco1)NC(=S)Nc1ccc(N2CCOCC2)c(Cl)c1 | inconclusive: 10 µM [inhibitor, partial curve]
